Some of the results follow. The data describe in vitro nicking of single-stranded DNA by Rep domains (1 h at 37 °C, 3 µM enzyme); the outer parts of the 90-letter strands are left off. The score is log2 (uncut reads / reads without enzyme); more negative means more cut, near 0 not cut, and no call is made. Reads are scaled to the total, so uncut sequences can rise above 0 when many others are cut.

In the test the test system is T1, Rep nickase domain of tomato golden mosaic virus.
T1 sequence (protein, residues 1-124, tag omitted): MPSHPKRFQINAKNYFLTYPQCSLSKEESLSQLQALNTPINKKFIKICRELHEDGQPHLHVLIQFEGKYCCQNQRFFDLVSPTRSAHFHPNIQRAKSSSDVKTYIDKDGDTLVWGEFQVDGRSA
Kind of test: uncleaved DNA left, log2 of reads against the no-enzyme library (log2 ratio); higher = less cleavage (more negative = more Rep cleavage of the k-mer); sequences stand for … in CTCGTCCG…ACCGGAGA
The procedure: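 A pool of 90-nt single-stranded DNAs with seven random bases just before the constant AC of the nick site (name = the seven bases) was cut by 3 µM recombinant His6-SUMO-tagged Rep nickase domain (300 nM DNA, 50 mM HEPES pH 8.0, 50 mM NaCl, 1 mM MnCl2, 1 h, 37 °C, three replicates). Uncut DNA was amplified and sequenced.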
On to AAGGGAT, for which the “uncleaved DNA left (log2)” value stood at 0.096.
Next, AAACCTG: 0.0711; ACAATTT: 0.00775.
As for AAAACGT, the figure is 0.0569; as for CCGTTTA, -0.117; as for TGATCGA, 0.00674.
Next, CCGTACG: -0.116; CGTACCT: -0.0631; AGGCGTT: -0.0665.
Turning to TGAATCT, the “uncleaved DNA left (log2)” value is -0.0537.
Regarding AGACCCC, the “uncleaved DNA left (log2)” value was found to be 0.118.
As for TTCTGAA, the figure is -0.0111.
Next, CCAATCG: -0.0604; GTAGACA: 0.0821.
As to CGACCCT, the “uncleaved DNA left (log2)” value is -0.226.
As for TAGTCCC, the figure is -0.255; as for ATTATAG, 0.0445.
In the case of GTACGTT, the “uncleaved DNA left (log2)” value was -0.126.
As for CACGTAG, the figure is -0.112; as for GTAAGCG, -0.0139.
As for AATCTAT, the figure is 0.165; as for ACCCCCT, -0.0156; as for GGAGTGA, 0.111.
As for AGTCCAC, the figure is -0.143; as for TTTTGTA, 0.0179; as for ATACCCT, 0.058.
With CGTCAAT, the “uncleaved DNA left (log2)” value was determined as 0.179.
Next, TGCCGTA: -0.22; TAAATGA: -0.11; CGTCACT: -0.0247.
Regarding AGTTGGA, the “uncleaved DNA left (log2)” value was -0.0484.
As for TGGACGG, the figure is 0.0532.
Next, GCAACTT: 0.0614; GGTCGCC: 0.0293; AGGTGGA: 0.0274.
As for CTGAATA, the figure is -0.00333; as for AGGATTA, -0.0192.
Take TTAGTGG: the “uncleaved DNA left (log2)” value was found to be 0.115.
For TCAGGGA, the “uncleaved DNA left (log2)” value is 0.108.
As for AGCCATA, the figure is -0.0248.

(Values after the supplement of paper PMC7826260.)
